# From paper PMC4336329 (PLoS ONE, 2015)
# The campaign covered roughly 310,000 compounds. About 2,200 (0.71%) showed an effect of 50% or more. The effect is printed as a negative number. This is one part of the list.
# Biological target: human ether-à-go-go-related gene (hERG) potassium channel (human, UniProt Q12809)
# Test: primary screen, population patch clamp on CHO cells stably expressing hERG
# Sequence of human ether-à-go-go-related gene (hERG) potassium channel (Q12809 whole entry, looked up): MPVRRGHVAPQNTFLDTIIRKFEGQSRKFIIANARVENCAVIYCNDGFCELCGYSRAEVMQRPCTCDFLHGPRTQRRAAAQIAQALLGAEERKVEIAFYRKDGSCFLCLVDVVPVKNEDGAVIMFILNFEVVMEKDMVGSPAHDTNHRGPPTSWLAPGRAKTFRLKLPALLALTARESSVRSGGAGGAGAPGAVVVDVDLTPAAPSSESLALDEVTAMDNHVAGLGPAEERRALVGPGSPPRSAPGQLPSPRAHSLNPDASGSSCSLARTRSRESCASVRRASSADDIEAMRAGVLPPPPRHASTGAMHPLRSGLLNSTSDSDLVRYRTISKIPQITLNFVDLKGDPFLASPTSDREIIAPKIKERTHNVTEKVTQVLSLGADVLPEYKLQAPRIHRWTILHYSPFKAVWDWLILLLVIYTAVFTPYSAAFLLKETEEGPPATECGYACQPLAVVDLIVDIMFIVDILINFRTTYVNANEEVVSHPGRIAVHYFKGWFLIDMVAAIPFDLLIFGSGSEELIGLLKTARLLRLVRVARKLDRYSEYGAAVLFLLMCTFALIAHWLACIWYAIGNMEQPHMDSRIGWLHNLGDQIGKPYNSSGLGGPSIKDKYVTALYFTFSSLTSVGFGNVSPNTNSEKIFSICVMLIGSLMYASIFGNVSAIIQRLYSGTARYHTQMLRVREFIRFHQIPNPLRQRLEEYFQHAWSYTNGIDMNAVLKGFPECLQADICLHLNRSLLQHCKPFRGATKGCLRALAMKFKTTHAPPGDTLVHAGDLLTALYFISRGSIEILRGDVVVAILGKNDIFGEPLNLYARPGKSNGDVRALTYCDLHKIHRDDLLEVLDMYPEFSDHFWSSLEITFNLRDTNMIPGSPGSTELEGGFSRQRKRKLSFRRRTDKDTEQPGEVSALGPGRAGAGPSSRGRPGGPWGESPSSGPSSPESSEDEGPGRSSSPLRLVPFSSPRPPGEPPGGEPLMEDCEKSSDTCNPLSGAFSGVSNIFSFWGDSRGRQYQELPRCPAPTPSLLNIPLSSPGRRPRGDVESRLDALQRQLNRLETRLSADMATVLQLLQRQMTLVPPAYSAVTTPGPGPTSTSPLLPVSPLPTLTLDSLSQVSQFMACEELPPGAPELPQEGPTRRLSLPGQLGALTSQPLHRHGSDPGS
row,SMILES,"hERG current change (%, negative = inhibition) at 1uM [%]"
1,CCOc1ccc(CCNC(=O)C2CCN(c3nn4c(=O)cc(C)nc4s3)CC2)cc1OCC,7.91
2,Cc1ccc(-n2nc3c(c2NC(=O)c2cccs2)CS(=O)(=O)C3)cc1C,-10.3
3,CN(Cc1cn(C)nc1-c1ccc(Oc2ccccc2)cc1)Cc1cnc2ccccn12,1.55
4,CCOc1ccc(NC(=O)N[C@@H](Cc2ccccc2)C(=O)O)cc1,10.9
5,O=C(O)C(=O)O.OC(CNCCc1ccc(C(F)(F)F)cc1)COC(c1ccccc1)c1ccccc1 (centres unmarked),6.38
6,Cc1ccc2[nH]c(CSc3ccccc3)cc(=O)c2c1,12.4
7,O=c1c2ccccc2n2c(-c3ccc(F)cc3)nnc2n1Cc1ccccc1,6.71
8,CCOc1ccc(CCNC(=O)COC(=O)C2=NNC(=O)CC2)cc1OCC,9.57
9,Cn1cccc1C(=S)N=P(C1CCCCC1)(N1CCOCC1)N1CCOCC1,6.29
10,O=C(/C=C/c1ccc(S(=O)(=O)NCc2ccco2)cc1)N1CCN(c2ccccc2)CC1,5.15
11,CC(=O)Nc1ccc(NC(=O)C(C)OC(=O)CNC(=O)c2cccs2)cc1 (centres unmarked),12.5
12,O=C(c1ccco1)N1CCN(Cc2cccc(C(F)(F)F)c2)CC1,10.8
13,COc1ccccc1-c1ccc(SCC(=O)Nc2cc(C)on2)nn1,5.82
14,Cc1nnc(SCC(=O)NCc2ccco2)n1Cc1ccccc1,15.9
15,COc1ccccc1Oc1ccc(N/C=C/C(=O)C(C)(C)C)cc1,8.32
16,COc1ccccc1NC(=O)c1ccc(NC(=O)CN2CCN(C(=O)c3ccco3)CC2)cc1,-6.88
17,Cc1cc(=O)[nH]c(CN2CCC(c3ccccc3)CC2)n1,12.9
18,CC(=O)Nc1ccc(S(=O)(=O)NC(CC(=O)N(C)Cc2ccccc2)C(C)C)cc1 (centres unmarked),11.5
19,O=C(NC1CCCCC1)C(c1ccc(O)cc1)N(C(=O)c1cnccn1)c1cccc(F)c1 (centres unmarked),5.26
20,COc1ccccc1NC(=O)c1ccc(-n2cccn2)nc1,6.59
21,CC(=O)Nc1ccc(NC(=O)c2ccc(NS(=O)(=O)c3cc(C(C)(C)C)ccc3C)cc2)cc1,9.04
22,CCC(C)(C(=O)NC1CCCC1)N(C)C(=O)c1ccccn1 (centres unmarked),6.56
23,CC(NC(N)=O)C(=O)OCC(=O)c1ccc(-c2ccccc2)cc1 (centres unmarked),7.97
